The results in this text go back to the supplement of paper PMC10724272.

Holding throughout (assay): CLSI broth microdilution.
For orientation: Broth dilution looks for growth in wells or tubes with falling amounts of substance.

Compound in one test: OC(Cn1cncn1)(Cn1cncn1)c1ccc(F)cc1F [fluconazole]
Compound in the next test: CCC(C)n1ncn(-c2ccc(N3CCN(c4ccc(OCC5COC(Cn6cncn6)(c6ccc(Cl)cc6Cl)O5)cc4)CC3)cc2)c1=O [itraconazole]
Compound in the next test: CCCCCOc1ccc(-c2cc(-c3ccc(C(=O)N[C@H]4C[C@@H](O)[C@@H](O)NC(=O)[C@@H]5[C@@H](O)[C@@H](C)CN5C(=O)[C@H]([C@H](O)CC(N)=O)NC(=O)[C@H]([C@H](O)[C@@H](O)c5ccc(O)c(OS(=O)(=O)O)c5)NC(=O)[C@@H]5C[C@@H](O)CN5C(=O)[C@H]([C@@H](C)O)NC4=O)cc3)no2)cc1 [micafungin]
Compound in a further test: CC[C@H](C)C[C@H](C)CCCCCCCCC(=O)N[C@H]1C[C@@H](O)[C@@H](NCCN)NC(=O)[C@@H]2[C@@H](O)CCN2C(=O)[C@H]([C@H](O)CCN)NC(=O)[C@H]([C@H](O)[C@@H](O)c2ccc(O)cc2)NC(=O)[C@@H]2C[C@@H](O)CN2C(=O)[C@H]([C@@H](C)O)NC1=O [caspofungin]
Compound in a further test: C[C@@H](c1ncncc1F)[C@](O)(Cn1cncn1)c1ccc(F)cc1F [voriconazole]
Compound in another test: C[C@@H]1[C@H](O)[C@@H](C)/C=C/C=C/C=C/C=C/C=C/C=C/C=C/[C@H](O[C@@H]2O[C@H](C)[C@@H](O)[C@H](N)[C@@H]2O)C[C@@H]2O[C@](O)(C[C@@H](O)C[C@@H](O)[C@H](O)CC[C@@H](O)C[C@@H](O)CC(=O)O[C@H]1C)C[C@H](O)[C@H]2C(=O)O [amphotericin B]
Compound in a further test: CCCCCOc1ccc(-c2ccc(-c3ccc(C(=O)N[C@H]4C[C@@H](O)[C@@H](O)NC(=O)[C@@H]5[C@@H](O)[C@@H](C)CN5C(=O)[C@H]([C@@H](C)O)NC(=O)[C@H]([C@H](O)[C@@H](O)c5ccc(O)cc5)NC(=O)[C@@H]5C[C@@H](O)CN5C(=O)[C@H]([C@@H](C)O)NC4=O)cc3)cc2)cc1 [anidulafungin]
Compound in a further test: Nc1[nH]c(=O)ncc1F [flucytosine]
Compound in the next test: CC[C@@H]([C@H](C)O)n1ncn(-c2ccc(N3CCN(c4ccc(OC[C@@H]5CO[C@@](Cn6cncn6)(c6ccc(F)cc6F)C5)cc4)CC3)cc2)c1=O [posaconazole]

MIC of invasive clinical C. tropicalis isolates, CLSI broth microdilution (fluconazole 0.12-256 mg/L, up to 1,024 for the azole-resistant cluster and its neighbour group; other ranges not stated); higher = less susceptible. Call: susceptible or wild type [S] / resistant or non-wild type [R] by CLSI breakpoints or cut-offs; intermediate and dose-dependent carry no call. '<=' and '>=' at the end values are inferred; the source marks only some of them. Isolates are numbered anew.

Regarding “Candida tropicalis isolate 222 (ERG11 copies: 5, Erg11p: Y132F, S154F, P397S (heterozygous))”, the MIC (as a rule, the least concentration at which growth counts as inhibited) with fluconazole was 256 mg/L [R]; with itraconazole, 1 mg/L [R]; in the test with micafungin, 0.03 mg/L [S]; with caspofungin, 0.06 mg/L [S]; with voriconazole, at least 8 mg/L [R]; with amphotericin B, 1 mg/L [S]. Besides, the MIC with anidulafungin is 0.06 mg/L [S]; with flucytosine, at most 0.06 mg/L [S]; with posaconazole, 1 mg/L [R].
Regarding “Candida tropicalis isolate 431 (ERG11 copies: 2, Erg11p: no key change)”, the MIC was found to be 2 mg/L [S] with fluconazole; 0.12 mg/L [S] in the test with itraconazole; 0.015 mg/L [S] with micafungin; 0.03 mg/L [S] with caspofungin; 0.12 mg/L [S] with voriconazole; 0.5 mg/L [S] in the test with amphotericin B. Also, the minimum inhibitory concentration (MIC) with anidulafungin is at most 0.015 mg/L [S]; with flucytosine, at most 0.06 mg/L [S]; with posaconazole, 0.12 mg/L [S].
On to “Candida tropicalis isolate 438 (ERG11 copies: 2, Erg11p: Y132F, S154F (heterozygous))”, for which the MIC is 32 mg/L [R] with fluconazole; 0.5 mg/L [S] with itraconazole; 0.03 mg/L [S] with micafungin; 0.03 mg/L [S] in the test with caspofungin; 2 mg/L [R] with voriconazole; 0.5 mg/L [S] with amphotericin B. Moreover, the MIC in the test with anidulafungin stood at 0.12 mg/L [S]; with flucytosine, 0.12 mg/L [S]; with posaconazole it was 0.5 mg/L [R].
As for “Candida tropicalis isolate 111 (ERG11 copies: 2, Erg11p: no key change)”, the MIC with fluconazole is 0.25 mg/L [S]; with itraconazole, 0.015 mg/L [S]; with micafungin, 0.015 mg/L [S]; with caspofungin, 0.03 mg/L [S]; with voriconazole it was at most 0.008 mg/L [S]; with amphotericin B, 0.5 mg/L [S]. In addition, the MIC was at most 0.015 mg/L [S] with anidulafungin, at most 0.06 mg/L [S] in the test with flucytosine and 0.015 mg/L [S] with posaconazole.
On to “Candida tropicalis isolate 228 (ERG11 copies: 2, Erg11p: no key change)”, for which the MIC with fluconazole stood at 16 mg/L [R]; in the test with itraconazole it was 1 mg/L [R]; in the test with micafungin, 0.03 mg/L [S]; with caspofungin, 0.03 mg/L [S]; with voriconazole it was 0.5 µg/mL; with amphotericin B, 1 mg/L [S]. Besides, the MIC with anidulafungin is at most 0.015 mg/L [S]; in the test with flucytosine it was at most 0.06 mg/L [S]; with posaconazole, 2 mg/L [R].
In the case of “Candida tropicalis isolate 199 (ERG11 copies: 2, Erg11p: Y257H (homozygous))”, the MIC in the test with fluconazole stood at 16 mg/L [R]; with itraconazole it was 1 mg/L [R]; with micafungin, 0.03 mg/L [S]; with caspofungin, 0.015 mg/L [S]; in the test with voriconazole, 2 mg/L [R]; with amphotericin B, 1 mg/L [S]. Besides, the minimum inhibitory concentration (MIC) with anidulafungin was found to be 0.06 mg/L [S]; with flucytosine it was 0.12 mg/L [S]; with posaconazole, 1 mg/L [R].
As for “Candida tropicalis isolate 160 (ERG11 copies: 2, Erg11p: no key change)”, the MIC was found to be 4 µg/mL with fluconazole; 0.25 mg/L [S] in the test with itraconazole; 0.015 mg/L [S] with micafungin; 0.03 mg/L [S] with caspofungin; 0.25 µg/mL in the test with voriconazole; 1 mg/L [S] with amphotericin B. Moreover, the MIC was 0.06 mg/L [S] with anidulafungin, at most 0.06 mg/L [S] with flucytosine and 0.5 mg/L [R] with posaconazole.
As for “Candida tropicalis isolate 50 (ERG11 copies: 2, Erg11p: no key change)”, the MIC with fluconazole came out at 2 mg/L [S]; with itraconazole, 0.25 mg/L [S]; in the test with micafungin it was 0.03 mg/L [S]; in the test with caspofungin it was 0.03 mg/L [S]; in the test with voriconazole, 0.12 mg/L [S]; with amphotericin B, 1 mg/L [S]. Also, the MIC was 0.12 mg/L [S] with anidulafungin, at most 0.06 mg/L [S] in the test with flucytosine and 0.5 mg/L [R] with posaconazole.
Turning to “Candida tropicalis isolate 197 (ERG11 copies: 2, Erg11p: no key change)”, the minimal inhibitory concentration (MIC) in the test with fluconazole was found to be 8 mg/L [R]; with itraconazole, 0.5 mg/L [S]; with micafungin, 0.03 mg/L [S]; in the test with caspofungin, 0.03 mg/L [S]; in the test with voriconazole, 0.5 µg/mL; with amphotericin B, 1 mg/L [S]. Also, the MIC is 0.03 mg/L [S] with anidulafungin, at most 0.06 mg/L [S] with flucytosine and 1 mg/L [R] with posaconazole.
With “Candida tropicalis isolate 357 (ERG11 copies: 2, Erg11p: no key change)”, the minimal inhibitory concentration (MIC) was 1 mg/L [S] with fluconazole; 0.25 mg/L [S] with itraconazole; 0.03 mg/L [S] with micafungin; 0.03 mg/L [S] in the test with caspofungin; 0.12 mg/L [S] with voriconazole; 1 mg/L [S] with amphotericin B. In addition, the figures for the minimum inhibitory concentration (MIC) with anidulafungin, with flucytosine and with posaconazole were 0.03 mg/L [S], at most 0.06 mg/L [S] and 0.25 mg/L [S], respectively.
Turning to “Candida tropicalis isolate 155 (ERG11 copies: 2, Erg11p: no key change)”, the MIC was found to be 1 mg/L [S] with fluconazole; 0.12 mg/L [S] in the test with itraconazole; 0.03 mg/L [S] with micafungin; 0.03 mg/L [S] in the test with caspofungin; 0.12 mg/L [S] with voriconazole; 0.5 mg/L [S] in the test with amphotericin B. For the same test system, the MIC is 0.03 mg/L [S] with anidulafungin, at most 0.06 mg/L [S] with flucytosine and 0.25 mg/L [S] with posaconazole.
As for “Candida tropicalis isolate 212 (ERG11 copies: 2, Erg11p: no key change)”, the MIC in the test with fluconazole is 8 mg/L [R]; with itraconazole, 0.5 mg/L [S]; in the test with micafungin, 0.015 mg/L [S]; with caspofungin, 0.015 mg/L [S]; with voriconazole it was 1 mg/L [R]; with amphotericin B it was 1 mg/L [S]. Also, the MIC was at most 0.015 mg/L [S] in the test with anidulafungin, at most 0.06 mg/L [S] in the test with flucytosine and 1 mg/L [R] with posaconazole.
Regarding “Candida tropicalis isolate 433 (ERG11 copies: 2, Erg11p: no key change)”, the MIC was 2 mg/L [S] with fluconazole; 0.25 mg/L [S] with itraconazole; 0.03 mg/L [S] with micafungin; 0.12 mg/L [S] with caspofungin; 0.12 mg/L [S] with voriconazole; 0.5 mg/L [S] with amphotericin B. The MIC is 0.12 mg/L [S] with anidulafungin, at most 0.06 mg/L [S] with flucytosine and 0.12 mg/L [S] in the test with posaconazole.
Take “Candida tropicalis isolate 425 (ERG11 copies: 2, Erg11p: no key change)”: the MIC with fluconazole was 2 mg/L [S]; with itraconazole it was 0.5 mg/L [S]; with micafungin, 0.03 mg/L [S]; in the test with caspofungin, 0.03 mg/L [S]; in the test with voriconazole it was 0.5 µg/mL; in the test with amphotericin B, 1 mg/L [S]. Also, the MIC with anidulafungin is 0.03 mg/L [S]; with flucytosine, at most 0.06 mg/L [S]; with posaconazole it was 0.5 mg/L [R].
Take “Candida tropicalis isolate 277 (ERG11 copies: 2, Erg11p: no key change)”: the MIC was 1 mg/L [S] in the test with fluconazole; 0.12 mg/L [S] in the test with itraconazole; 0.06 mg/L [S] in the test with micafungin; 0.06 mg/L [S] with caspofungin; 0.06 mg/L [S] in the test with voriconazole; 0.5 mg/L [S] in the test with amphotericin B. For the same test system, the MIC in the test with anidulafungin, with flucytosine and with posaconazole was 0.12 mg/L [S] throughout.
On to “Candida tropicalis isolate 247 (ERG11 copies: 2, Erg11p: no key change)”, for which the MIC in the test with fluconazole was found to be 0.5 mg/L [S]; in the test with itraconazole it was 0.06 mg/L [S]; with micafungin, 0.008 mg/L [S]; in the test with caspofungin, 0.015 mg/L [S]; with voriconazole, 0.015 mg/L [S]; with amphotericin B it was 0.25 mg/L [S]. Besides, the MIC is at most 0.015 mg/L [S] with anidulafungin, at most 0.06 mg/L [S] with flucytosine and 0.03 mg/L [S] with posaconazole.
